In the supplement of paper PMC10369915:
This is one part of the list. Rule as the data show it: active = 3.2 or more and inactive = the rest. Most of these values are background signal.

How the values were obtained:
Assay in all cases: enrichment score (SH2-bound / input frequency) (ratio); bacterial display of known human phosphotyrosine sites (pTyr-Var adds point mutants) read by sequencing; higher = stronger binding; tyrosines were phosphorylated by kinases first
Conditions in all cases: peptide library: pTyr-Var
SHP2 C-SH2 domain E139D = target: SHP2 C-SH2 domain E139D
[1] = target: SHP2 C-SH2 domain wild-type
SHP2 N-SH2 domain L43F = target: SHP2 N-SH2 domain L43F
SHP2 N-SH2 domain T42A = target: SHP2 N-SH2 domain T42A
SHP2 N-SH2 domain T52S = target: SHP2 N-SH2 domain T52S
[2] = target: SHP2 N-SH2 domain wild-type

Measured: enrichment score
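Also: displayed peptides selected on beads carrying the immobilized SH2 domain, with library peptides lacking any tyrosine serving as negative controls.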

RLEGVYGNNID [PTEN_Y46_R47G]
inactive: SHP2 C-SH2 domain E139D 0.582 | [1] 0.53 | SHP2 N-SH2 domain L43F 0.53 | SHP2 N-SH2 domain T42A 0.645 | SHP2 N-SH2 domain T52S 0.443 | [2] 0.55

RRNVFYFSFLL [PTEN_Y177_Y174N_YF]
inactive: SHP2 C-SH2 domain E139D 0.861 | [1] 0.694 | SHP2 N-SH2 domain L43F 0.825 | SHP2 N-SH2 domain T42A 0.879 | SHP2 N-SH2 domain T52S 0.885 | [2] 0.468

GPQGFYSNKLV [PTPN14_Y506_V505F]
inactive: SHP2 C-SH2 domain E139D 1.2 | [1] 0.95 | SHP2 N-SH2 domain L43F 0.897 | SHP2 N-SH2 domain T42A 0.734 | SHP2 N-SH2 domain T52S 0.913 | [2] 0.927

AALVQYFMEHH [PTPN11_Y80_E76A_YF]
inactive: SHP2 C-SH2 domain E139D 2.7 | [1] 2.48 | SHP2 N-SH2 domain L43F 2.63 | SHP2 N-SH2 domain T42A 2.32 | SHP2 N-SH2 domain T52S 2.76 | [2] 2.28

EPVSDYINANV [PTPN11_Y304_I309V]
inactive: SHP2 C-SH2 domain E139D 0.643 | [1] 0.842 | SHP2 N-SH2 domain L43F 0.89 | SHP2 N-SH2 domain T42A 0.754 | SHP2 N-SH2 domain T52S 0.785 | [2] 0.874

DLDFTYIYPNI [PTEN_Y27_L25F]
inactive: SHP2 C-SH2 domain E139D 1.1 | [1] 1.01 | SHP2 N-SH2 domain L43F 0.825 | SHP2 N-SH2 domain T42A 0.803 | SHP2 N-SH2 domain T52S 1.03 | [2] 1.13

AALSAYAAQRP [PTPRN2_Y249]
inactive: SHP2 C-SH2 domain E139D 0.844 | [1] 0.844 | SHP2 N-SH2 domain L43F 0.725 | SHP2 N-SH2 domain T42A 0.672 | SHP2 N-SH2 domain T52S 0.626 | [2] 0.849

VKKNRYKDILP [PTPN12_Y64]
inactive: SHP2 C-SH2 domain E139D 0.86 | [1] 0.638 | SHP2 N-SH2 domain L43F 0.483 | SHP2 N-SH2 domain T42A 0.55 | SHP2 N-SH2 domain T52S 0.668 | [2] 0.73

QTEAQYRFIYM [PTPN11_Y511]
inactive: SHP2 C-SH2 domain E139D 0.661 | [1] 0.65 | SHP2 N-SH2 domain L43F 0.672 | SHP2 N-SH2 domain T42A 0.497 | SHP2 N-SH2 domain T52S 0.412 | [2] 0.637

GYRVCYTPDSR [PTPRF_Y451_Y450C]
inactive: SHP2 C-SH2 domain E139D 0.823 | [1] 1.09 | SHP2 N-SH2 domain L43F 0.792 | SHP2 N-SH2 domain T42A 0.852 | SHP2 N-SH2 domain T52S 0.845 | [2] 1.27

NAGDFYDLFGG [PTPN11_Y63_T59A_YF]
inactive: SHP2 C-SH2 domain E139D 0.909 | [1] 1 | SHP2 N-SH2 domain L43F 0.914 | SHP2 N-SH2 domain T42A 0.796 | SHP2 N-SH2 domain T52S 1 | [2] 1.05

NHYKIYNPCAE [PTEN_Y68_L70P]
inactive: SHP2 C-SH2 domain E139D 0.861 | [1] 0.708 | SHP2 N-SH2 domain L43F 0.617 | SHP2 N-SH2 domain T42A 0.64 | SHP2 N-SH2 domain T52S 0.671 | [2] 0.747

KTGDYYDLYGG [PTPN11_Y63_N58K]
inactive: SHP2 C-SH2 domain E139D 0.738 | [1] 0.643 | SHP2 N-SH2 domain L43F 0.642 | SHP2 N-SH2 domain T42A 0.797 | SHP2 N-SH2 domain T52S 0.629 | [2] 0.544

NTGGFYDLFGG [PTPN11_Y63_D61G_YF]
inactive: SHP2 C-SH2 domain E139D 1.11 | [1] 1.16 | SHP2 N-SH2 domain L43F 1.07 | SHP2 N-SH2 domain T42A 1.08 | SHP2 N-SH2 domain T52S 1.25 | [2] 1.11

TGEDWYVLVGV [SF3B3_Y904]
inactive: [2] 1

GYRVYYTPDSR [PTPRF_Y451]
inactive: SHP2 C-SH2 domain E139D 1.08 | [1] 1.16 | SHP2 N-SH2 domain L43F 1.24 | SHP2 N-SH2 domain T42A 1.02 | SHP2 N-SH2 domain T52S 0.838 | [2] 1.3

KNKNRCKNILP [PTPN11_Y279_Y279C]
inactive: SHP2 C-SH2 domain E139D 0.613 | [1] 0.791 | SHP2 N-SH2 domain L43F 0.649 | SHP2 N-SH2 domain T42A 0.474 | SHP2 N-SH2 domain T52S 0.63 | [2] 0.651

QFRFIYMAVQH [PTPN11_Y515_YF]
inactive: SHP2 C-SH2 domain E139D 1.69 | [1] 1.78 | SHP2 N-SH2 domain L43F 1.63 | SHP2 N-SH2 domain T42A 1.51 | SHP2 N-SH2 domain T52S 1.57 | [2] 1.63

NYYDLYGGEKF [PTPN11_Y66_D61N]
inactive: SHP2 C-SH2 domain E139D 1.21 | [1] 0.943 | SHP2 N-SH2 domain L43F 0.861 | SHP2 N-SH2 domain T42A 0.839 | SHP2 N-SH2 domain T52S 0.956 | [2] 0.983

NHFKIYNPCAE [PTEN_Y68_L70P_YF]
inactive: SHP2 C-SH2 domain E139D 0.852 | [1] 1.05 | SHP2 N-SH2 domain L43F 0.682 | SHP2 N-SH2 domain T42A 0.668 | SHP2 N-SH2 domain T52S 0.709 | [2] 0.707

QNTGDYYDLYG [PTPN11_Y62]
inactive: SHP2 C-SH2 domain E139D 0.53 | [1] 0.993 | SHP2 N-SH2 domain L43F 0.631 | SHP2 N-SH2 domain T42A 0.524 | SHP2 N-SH2 domain T52S 0.635 | [2] 0.784

RVGVDYEGGGC [PLOD1_Y675]
inactive: [1] 0.993 | SHP2 N-SH2 domain T42A 0.319 | SHP2 N-SH2 domain T52S 1.33

AELVQYYMEHH [PTPN11_Y80]
inactive: SHP2 C-SH2 domain E139D 1.29 | [1] 1.46 | SHP2 N-SH2 domain L43F 1.33 | SHP2 N-SH2 domain T42A 1.23 | SHP2 N-SH2 domain T52S 1.51 | [2] 1.52

SETDDYAEIIV [PTK2_Y397_D402V]
inactive: SHP2 C-SH2 domain E139D 0.534 | [1] 0.61 | SHP2 N-SH2 domain L43F 0.504 | SHP2 N-SH2 domain T42A 0.412 | SHP2 N-SH2 domain T52S 0.578 | [2] 0.586

NHYKRYNLCAE [PTEN_Y68_I67R]
inactive: SHP2 C-SH2 domain E139D 0.746 | [1] 0.772 | SHP2 N-SH2 domain L43F 0.644 | SHP2 N-SH2 domain T42A 0.76 | SHP2 N-SH2 domain T52S 0.662 | [2] 0.941

NHFKIYNLFAE [PTEN_Y68_C71Y_YF]
inactive: SHP2 N-SH2 domain L43F 0.852 | SHP2 N-SH2 domain T52S 1.64 | [2] 1.85

NTGVYYDLYGG [PTPN11_Y63_D61V]
inactive: SHP2 C-SH2 domain E139D 1.42 | [1] 1.3 | SHP2 N-SH2 domain L43F 1.12 | SHP2 N-SH2 domain T42A 1.2 | SHP2 N-SH2 domain T52S 1.09 | [2] 1.28

NTVDYYDLYGG [PTPN11_Y63_G60V]
inactive: SHP2 C-SH2 domain E139D 0.987 | [1] 0.778 | SHP2 N-SH2 domain L43F 0.807 | SHP2 N-SH2 domain T42A 0.864 | SHP2 N-SH2 domain T52S 0.86 | [2] 0.947

RGYRVCYTPDS [PTPRF_Y450_Y450C]
inactive: SHP2 C-SH2 domain E139D 0.914 | [1] 0.762 | SHP2 N-SH2 domain L43F 0.7 | SHP2 N-SH2 domain T42A 0.681 | SHP2 N-SH2 domain T52S 0.7 | [2] 1.1

QNTVDYYDLYG [PTPN11_Y62_G60V]
inactive: SHP2 C-SH2 domain E139D 0.778 | [1] 0.671 | SHP2 N-SH2 domain L43F 1.19 | SHP2 N-SH2 domain T42A 1.07 | SHP2 N-SH2 domain T52S 0.943 | [2] 0.941

NTGDFYDLFGG [PTPN11_Y63_YF]
inactive: SHP2 C-SH2 domain E139D 1.13 | [1] 1.03 | SHP2 N-SH2 domain L43F 1.17 | SHP2 N-SH2 domain T42A 0.963 | SHP2 N-SH2 domain T52S 1.14 | [2] 1.2

NTADFYDLFGG [PTPN11_Y63_G60A_YF]
inactive: SHP2 C-SH2 domain E139D 1.11 | [1] 1.02 | SHP2 N-SH2 domain L43F 0.964 | SHP2 N-SH2 domain T42A 1.1 | SHP2 N-SH2 domain T52S 1.17 | [2] 1.06

QNTGDYCDLYG [PTPN11_Y62_Y63C]
inactive: SHP2 C-SH2 domain E139D 0.745 | [1] 1.1 | SHP2 N-SH2 domain L43F 0.948 | SHP2 N-SH2 domain T42A 0.865 | SHP2 N-SH2 domain T52S 0.952 | [2] 1.17

AGLVQYFMEHH [PTPN11_Y80_E76G_YF]
inactive: SHP2 C-SH2 domain E139D 1.92 | [1] 1.78 | SHP2 N-SH2 domain L43F 1.83 | SHP2 N-SH2 domain T42A 1.78 | SHP2 N-SH2 domain T52S 1.68 | [2] 1.63

NFFDLYGGEKF [PTPN11_Y66_D61N_YF]
inactive: SHP2 C-SH2 domain E139D 1.34 | [1] 1.58 | SHP2 N-SH2 domain L43F 1.1 | SHP2 N-SH2 domain T42A 1.16 | SHP2 N-SH2 domain T52S 1.25 | [2] 1.44
